# Test results taken from PubChem BioAssay AID1745853 (National Center for Advancing Translational Sciences (NCATS), 2022).
# Some of the results follow. Further columns of the screen follow, without active or inactive calls.
# Key:
# Assay in all cases: Primary Screen for Target Class Profiling of Small Molecule Inhibitors of Methyltransferases
# [1] = target: Glycine N-methyltransferase (Homo sapiens) (UniProt Q14749); settings: purified enzyme, MTase-Glo SAH luminescence; measured here: GNMT inhibition; at 40 µM; stronger effect = lower value
# Method in brief: (§1)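 Each enzyme was reacted with SAM and its substrate, with compounds tested once at 40 uM; SAH formed was read by MTase-Glo luminescence.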
# [2] = target: Guanidinoacetate N-methyltransferase (Homo sapiens) (UniProt Q14353); settings: purified enzyme, MTase-Glo SAH luminescence; measured here: GAMT inhibition; at 40 µM; stronger effect = lower value
# Method in brief: as §1
# [3] = target: Histamine N-methyltransferase (Homo sapiens) (UniProt P50135); settings: purified enzyme, MTase-Glo SAH luminescence; measured here: HNMT inhibition; at 40 µM; stronger effect = lower value
# Method in brief: as §1
# [4] = target: Nicotinamide N-methyltransferase (Homo sapiens) (UniProt P40261); settings: purified enzyme, MTase-Glo SAH luminescence; measured here: NNMT inhibition; at 40 µM; stronger effect = lower value
# Method in brief: as §1
# [5] = target: Phenylethanolamine N-methyltransferase (Homo sapiens) (UniProt P11086); settings: purified enzyme, MTase-Glo SAH luminescence; measured here: PNMT inhibition; at 40 µM; stronger effect = lower value
# Method in brief: as §1
# On the % scale 0 is the no-effect control and ±100 the full control effect.
Compound,"activity change, negative = inhibition [1]","activity change, negative = inhibition [2]","activity change, negative = inhibition [3]","activity change, negative = inhibition [4]","activity change, negative = inhibition [5]"
COC1C=CC23c4cc5c(cc4COC2(O)CN(C)C3C1)OCO5 (stereo not drawn),3.22%,-0.247%,8.92%,-13.7%,3.35%
CC(C)(C)CC(=O)N1C[C@@H]2C[C@H](C1)c1ccc(NC(=O)c3ccco3)c(=O)n1C2,-10.7%,-2.75%,-3.86%,-4.98%,-1.79%
CCOC(=O)c1ccccc1NC(=O)N1Cc2ccccc2-n2cccc2C1c1cccs1 (stereo not drawn),2.66%,0.724%,1.02%,0.132%,6.07%
CC(C)C(=O)O[C@H]1[C@@H]2[C@H](C)C(=O)O[C@@H]2C[C@@H](C)[C@@H]2C=CC(=O)[C@]21C,-8.27%,-5.33%,1.58%,-13%,-11.5%
COc1ccc(OC)c(NC(=O)N2Cc3ccccc3-n3cccc3C2c2cc(F)cc(F)c2)c1 (stereo not drawn),10.4%,5.3%,10.5%,4.17%,5.03%
CC(=O)OC1CC(O)C(C)(C)C2CC(OC(C)=O)C3(C)C(CCC4(C)C(c5ccoc5)C(=O)C5OC543)C12C (stereo not drawn),-2.17%,2.49%,-1.63%,-11.4%,1.88%
CCc1ccc(C2c3cccn3-c3ccccc3CN2C(=O)Nc2ccc(C)cc2C)cc1 (stereo not drawn),9.57%,2.95%,3.11%,3.04%,7.54%
O=C(NCc1ccccc1)N1Cc2ccccc2-n2cccc2C1c1ccc(F)cc1 (stereo not drawn),0.539%,0%,4.99%,3.96%,7.37%
COCCCNC(=O)N1Cc2ccccc2-n2cccc2C1c1ccccc1 (stereo not drawn),13.3%,1.57%,3.95%,6.99%,10.5%
Cc1cccc(C2c3cccn3-c3ccccc3CN2C(=O)Nc2ccc(C)cc2C)c1 (stereo not drawn),4.77%,0.339%,2.46%,-0.655%,-0.429%
COc1ccc(NC(=O)N2Cc3ccccc3-n3cccc3C2C)cc1OC (stereo not drawn),-0.059%,3.77%,-1.46%,-5.64%,1.09%
COc1ccc(NC(=O)N2Cc3ccccc3-n3cccc3C2c2ccccc2C)c(OC)c1 (stereo not drawn),9.19%,0.061%,3.45%,-1.17%,4.16%
COC(=O)c1ccc(Cl)cc1NC(=O)N1Cc2ccccc2-n2cccc2C1c1ccccc1 (stereo not drawn),4.36%,-1.11%,2.11%,-2.42%,-0.326%
CCOc1ccc(NC(=O)N2Cc3ccccc3-n3cccc3C2c2ccc(OC)c(OC)c2)cc1 (stereo not drawn),7.96%,4.14%,3.27%,-0.791%,3.63%
COC(=O)C12C(=O)C(C)(O)C(=O)C1(C)C(C)=CC1C3(C=O)CCC(OC(C)=O)C(C)(C)C3CCC12C (stereo not drawn),-2.86%,-3.37%,0.708%,-16.4%,1.92%
CCOC(=O)CNC(=O)N1Cc2ccccc2-n2cccc2C1c1ccc(OC)cc1 (stereo not drawn),7.5%,1.43%,-1.58%,-1.48%,0.808%

Compound,"activity change, negative = inhibition [1]","activity change, negative = inhibition [2]","activity change, negative = inhibition [3]","activity change, negative = inhibition [4]","activity change, negative = inhibition [5]"
C[C@H]1O[C@@H](n2cnc3c(N)ncnc32)C[C@@H]1O,-7.54%,-19.1%,4.32%,-19.1%,-5.97%
O=C(NC1CCCC1)N1Cc2ccccc2-n2cccc2C1c1ccc(F)cc1 (stereo not drawn),-0.019%,0%,1.22%,-7.16%,4.57%
Cc1ccc(C2c3cccn3-c3ccccc3CN2C(=O)Nc2ccccc2F)cc1 (stereo not drawn),-1.76%,0%,2.94%,2.04%,4.92%
c1ccc(C2(c3ccccc3)OC[C@@H]([C@H]3CCCCN3)O2)cc1,-0.892%,-4.12%,-7.02%,-16.1%,-12.2%
C/C=C(\C)C(=O)OC1C2C3(C)CCC(OC4CC(OC)C(OC5OC(C)C(O)C(OC)C5O)C(C)O4)CC3CCC23OC32CCC(C(C)=O)C2(C)C1OC(=O)/C(C)=C/C (stereo not drawn),3.98%,4.35%,5.72%,-3.52%,3.12%
CN1CCC(c2c[nH]c3ccc(O)cc23)CC1,4.2%,10.6%,-25%,-1.75%,11.9%
CC(=O)C1=C(O)[C@@H]2[C@H]3c4c[nH]c5cccc(c45)C[C@H]3C(C)(C)N2C1=O,–,-7.4%,–,-19.2%,-53.6%
Cc1ccccc1C1c2cccn2-c2ccccc2CN1C(=O)NCCc1ccccc1 (stereo not drawn),9.94%,0.3%,1.48%,-2.19%,4.63%
COc1ccc(OC)c(NC(=O)N2Cc3ccccc3-n3cccc3C2c2cccs2)c1 (stereo not drawn),9.77%,2.5%,3.92%,7.32%,9.16%
CCOC(=O)c1ccccc1NC(=O)N1Cc2ccccc2-n2cccc2C1c1cc(F)cc(F)c1 (stereo not drawn),12.2%,0%,11.8%,6.75%,8.66%
C1=C2CCCN[C@H]2[C@@H]2C[C@H]1[C@H]1CCCCN1C2,3.38%,8.65%,1.05%,-9.23%,4.32%
O=C(Nc1ccc(F)cc1)N1Cc2ccccc2-n2cccc2C1c1ccccc1Cl (stereo not drawn),5.81%,0%,5.6%,-6.09%,-3.62%
O=C(NCc1ccco1)N1Cc2ccccc2-n2cccc2C1c1ccc(F)cc1 (stereo not drawn),-0.984%,4.35%,-2.13%,-1.06%,0.847%
CC(N)Cc1c[nH]c2ccc(OCc3cccs3)cc12 (stereo not drawn),1.6%,6.28%,-19.5%,-13.1%,-1.16%
CC(=O)NCCCOc1ccc(C(=O)N2CCC(N3C(=O)CCc4ccccc43)CC2)cc1,1.97%,-2.83%,0.932%,-16.6%,-8.75%
